Measurements: patent publication US20180339066A1, “Methods and Compositions for Enhancing Transduction Efficiency of Retroviral Vectors” (The Scripps Research Institute, priority 2013, published 2018)

Test system: stimulated cord blood CD34+ cells
Experiment: Quantification of HIV-1 reverse transcription products by qPCR
Conditions: MOI=25, 20 μg/ml rapamycin
Description: Quantification of HIV-1 reverse transcription products. Stimulated cord blood CD34^+ cells (2-3E5) were transduced with an MOI of 25 in the presence of 20 μg/ml rapamycin or DMSO, and harvested at 6, 12, or 24 hours after the start of transduction by freezing cell pellets at −80° C. Total DNA was extracted using the QiaAmp DNA mini kit, and treated with Dpnl for 2-4 hours to eliminate plasmid DNA. Quantitative PCR was carried out on the Roche LightCycler 480 using previously published primer and probe sequences (Prasad et al., HIV Protocols: Second Edition 485, 2009).
We examined the kinetics of vector entry and reverse transcription to elucidate the replication step facilitated by rapamycin. The amount of cytoplasmic entry of viral cores can be determined by transducing cells with a vector carrying the HIV-1 accessory protein Vpr fused to β-lactamase (BLAM), and quantifying the blue fluorescence of a cleaved BLAM substrate by flow cytometry (see, e.g., Tobiume et al., J. Virol. 77:10645-50, 2003). […] In addition, we quantified the amount of reverse transcription and nuclear import products by qPCR, and found 2-to-3-fold increase in the per cell amount of viral strong-stop DNA, full-length DNA, and 2-LTR circles in the presence of rapamycin (FIG. 7B-D). […]

With `CO[C@H]1C[C@@H]2CC[C@@H](C)[C@@](O)(O2)C(=O)C(=O)N2CCCC[C@H]2C(=O)O[C@H]([C@H](C)C[C@@H]2CC[C@@H](O)[C@H](OC)C2)CC(=O)[C@H](C)/C=C(\C)[C@@H](O)[C@@H](OC)C(=O)[C@H](C)C[C@H](C)/C=C/C=C/C=C/1C` [rapamycin] as the compound, how does the “increase in per cell amount of viral strong-stop DNA” value read?
The value was 2-to-3 fold.
